From the supplement of paper PMC9446081 come the findings set out here.

Each structure is given as a SMILES string. Screen size: about 39,000 compounds; about 220 (0.56%) showed activity. The list shows a part of the results.
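Also: static incubation at 37 °C against the wild-type strain, values averaged over two biological replicates.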

In this assay the test system is Escherichia coli K-12 BW25113. The assay is described as follows: relative growth (OD600 normalised to plate interquartile mean) (fraction); higher = less growth inhibition, active = 0.2 or less. The note with it: 50 µM; LB; incubation time: overnight (16-24 h).
Regarding `Cc1noc(C)c1S(=O)(=O)Nc1ccc2c(c1)C(=O)N([C@H](C)CO)C[C@@H](C)[C@@H](CN(C)C(=O)NC(C)C)O2`, the relative growth is inactive: 0.995.
The value for `C[C@H]1CN([C@@H](C)CO)C(=O)c2cc(C#CCN(C)C)cnc2O[C@H]1CN(C)C(=O)Nc1ccccc1F` was inactive: 1.02.
On to `C[N+](C)(C)CCCC[C@@H]1NC(=O)[C@H]2C[C@@H](C(=O)NCCCCCCNC(=O)CS)[C@@H](c3cccc(OCCO)c3)N2C1=O`, for which the relative growth is inactive: 0.982.
The value for `CC(C)CC#Cc1ccc2c(c1)O[C@@H](CN(C)C(=O)NC1CCCC1)[C@@H](C)CN([C@@H](C)CO)S2(=O)=O` was inactive: 0.937; that for `C[C@H]1CN([C@@H](C)CO)C(=O)c2cccc(NS(=O)(=O)c3cn(C)cn3)c2O[C@H]1CN(C)Cc1ccncc1` was inactive: 1; that for `COc1ccc(S(=O)(=O)Nc2ccc3c(c2)C(=O)N([C@@H](C)CO)C[C@H](C)[C@@H](CN(C)C(=O)Nc2ccc4c(c2)OCO4)OCCCC[C@@H](C)O3)cc1` was inactive: 1.01.
The value for `Cn1cnc(S(=O)(=O)N[C@H]2C=C[C@H](CC(=O)NCC3CC3)O[C@@H]2CO)c1` was inactive: 1.01.
The value for `O=C(C[C@H]1C[C@H]2c3cc(NC(=O)NC4CCCC4)ccc3O[C@H]2[C@H](CO)O1)NCc1ccc(-c2ccccc2)cc1` was inactive: 0.999.
Consider `COc1ccc(/C=C/CN(C/C=C/c2ccc(OC)cc2)CCCNS(=O)(=O)c2cccc3cnccc23)cc1`, for which the relative growth is inactive: 0.947.
For `C[C@H]1CNCCO1`, the relative growth is inactive: 0.997.
Regarding `O=C(C[C@@H]1CC=CC[C@@H](Cc2ccc(F)cc2)C(=O)OC[C@H](Cc2c[nH]c3ccccc23)NC1=O)NCCO`, the relative growth is inactive: 1.02.
Consider `C[C@@H]1CCCCO[C@H](CN(C)C(=O)Nc2ccc(C(F)(F)F)cc2)[C@@H](C)CN([C@H](C)CO)C(=O)c2cc(NC(=O)Nc3ccc(F)cc3)ccc2O1`, for which the relative growth is inactive: 0.879.
In the case of `Cn1c([N+](=O)[O-])cnc1COC(N)=O`, the relative growth is inactive: 0.98.
On to `C[C@H](CO)N1C[C@H](C)[C@H](CN(C)Cc2ccc(O)cc2)OCc2ccccc2-c2c(n(C)c3ccccc23)C1=O`, for which the relative growth is inactive: 0.99.
For `O=C(C[C@@H]1CC[C@H]2[C@@H](COC[C@@H](O)CN2S(=O)(=O)c2ccccc2Cl)O1)NCc1ccccc1Cl` the value was inactive: 1; for `C[C@@H]1CCCCO[C@@H](CN(C)C(=O)Nc2cccc3ccccc23)[C@H](C)CN([C@@H](C)CO)C(=O)c2cc(NC(=O)Nc3ccccc3)ccc2O1`, inactive: 1.02.
The value for `COCCCNC(=O)[C@@]1(Sc2ccc(C)cc2)CC(=O)N(Cc2cc(C(F)(F)F)cc(C(F)(F)F)c2)[C@@H]1c1ccc(CO)cc1I` was inactive: 1.02; that for `C[C@@H]1CCCCO[C@@H](CN(C)C(=O)Nc2ccc(F)cc2)[C@@H](C)CN([C@H](C)CO)C(=O)c2cc(NS(=O)(=O)c3ccccc3)ccc2O1` was inactive: 1.01.
Regarding `CCNC1=N[C@@H]2[C@@H](O)[C@H](O)[C@@H](CO)O[C@@H]2S1`, the relative growth was inactive: 0.955.
The value for `COc1ccc(NC(=O)N(C)C[C@H]2OCCCC[C@H](C)Oc3ccc(NS(=O)(=O)c4ccc(C)cc4)cc3C(=O)N([C@H](C)CO)C[C@@H]2C)cc1` was inactive: 1.05; that for `C[C@@H]1CN([C@@H](C)CO)C(=O)c2cc(NS(=O)(=O)c3cccs3)ccc2O[C@@H](C)CCCCO[C@H]1CN(C)C(=O)Nc1ccc(F)cc1` was inactive: 1.01.
Regarding `C[C@H]1CN([C@@H](C)CO)S(=O)(=O)c2ccc(C#CCN(C)C)cc2O[C@@H]1CN(C)Cc1ccc2c(c1)OCO2`, the relative growth was inactive: 1.02.
For `C[C@@H]1CCCCO[C@@H](CN(C)C(=O)Cc2ccccc2)[C@@H](C)CN([C@H](C)CO)C(=O)c2cc(NC(=O)Nc3ccccc3)ccc2O1` the value was inactive: 1.02.
In the case of `C[C@H]1CN([C@@H](C)CO)C(=O)c2cc(NC(=O)Cn3cnnn3)ccc2O[C@@H]1CN(C)S(=O)(=O)c1cn(C)cn1`, the relative growth was inactive: 1.
The value for `Cc1csc(S(=O)(=O)N(CC(C)C)c2cc3c(cc2OCc2ccc(C(=O)O)cc2)CCC3)n1` was inactive: 1.01; that for `C[C@H]1CN([C@@H](C)CO)S(=O)(=O)c2ccc(-c3ccncc3)cc2O[C@H]1CN(C)C(=O)c1cccc(F)c1` was inactive: 1.
The value for `C[C@H](CO)N1C[C@H](C)[C@@H](CN(C)C(=O)Nc2ccc3c(c2)OCO3)Oc2ccc(NC(=O)C3CC3)cc2C1=O` was inactive: 0.988.
The value for `C[C@@H]1CN([C@@H](C)CO)C(=O)c2cccc(NS(C)(=O)=O)c2O[C@H]1CN(C)S(=O)(=O)c1ccc(Cl)cc1` was inactive: 1.
In the case of `C[C@H]1CN([C@@H](C)CO)C(=O)c2cccc(NC(=O)Nc3ccc(F)cc3)c2O[C@H]1CN(C)C(=O)Nc1ccc(C(F)(F)F)cc1`, the relative growth is inactive: 0.982.
Consider `[O-][NH2+]N1CCCCC1`, for which the relative growth was inactive: 1.01.
The value for `C[C@H]1CCCCO[C@H](CN(C)C(=O)Nc2cccc3ccccc23)[C@@H](C)CN([C@@H](C)CO)C(=O)c2cc(NC(=O)C3CCCCC3)ccc2O1` was inactive: 1.02; that for `C[C@H]1CN([C@@H](C)CO)C(=O)c2cc(NS(=O)(=O)c3cn(C)cn3)ccc2O[C@@H]1CN(C)C(=O)Nc1ccccc1` was inactive: 1; that for `C[C@@H]1CCCCO[C@H](CN(C)S(=O)(=O)c2cccs2)[C@H](C)CN([C@@H](C)CO)C(=O)c2cc(NS(=O)(=O)c3cn(C)cn3)ccc2O1` was inactive: 1.01.
The value for `C[C@@H]1CCCCO[C@@H](CN(C)C(=O)Nc2cccc3ccccc23)[C@H](C)CN([C@H](C)CO)C(=O)c2cc(NS(C)(=O)=O)ccc2O1` was inactive: 1.04; that for `Cc1cccc(N2CCC(N)CC2)c1` was inactive: 0.981.
`COc1ccc(CN(C)C[C@@H]2Oc3c(NS(=O)(=O)c4cn(C)cn4)cccc3C(=O)N([C@H](C)CO)C[C@H]2C)cc1`: the relative growth is inactive: 0.993.
For `C[C@H]1COC(=O)[C@@H](NC(=O)OCC2c3ccccc3-c3ccccc32)CC=CC[C@@H](CC(=O)NCCO)C(=O)N1` the value was inactive: 1.01; for `COc1cccc(S(=O)(=O)N(C)C[C@H]2Oc3ncc(Br)cc3C(=O)N([C@H](C)CO)C[C@H]2C)c1`, inactive: 0.99.
In the case of `C[C@@H]1CCCCO[C@@H](CN(C)Cc2ccccc2)[C@@H](C)CN([C@H](C)CO)C(=O)c2cc(NC(=O)c3ccncc3)ccc2O1`, the relative growth is inactive: 1.01.
The value for `COc1ccccc1NC(=O)N(C)C[C@H]1Oc2ncc(C#CCN(C)C)cc2C(=O)N([C@H](C)CO)C[C@H]1C` was inactive: 0.992; that for `C[C@H](CO)N1C[C@H](C)[C@H](CN(C)Cc2ccc(Cl)c(Cl)c2)Oc2c(NC(=O)C3CCCCC3)cccc2C1=O` was inactive: 1.01.
For `COc1ccc(S(=O)(=O)N(C)C[C@@H]2OCCCC[C@@H](C)Oc3ccc(NC(=O)c4ccccc4)cc3C(=O)N([C@@H](C)CO)C[C@@H]2C)cc1`, the relative growth is inactive: 1.03.
On to `COc1ccc(S(=O)(=O)N(C)C[C@H]2Oc3ccc(NS(=O)(=O)c4ccc(C)cc4)cc3CC(=O)N([C@H](C)CO)C[C@@H]2C)cc1`, for which the relative growth is inactive: 1.03.
In the case of `Cc1ccc(S(=O)(=O)Nc2ccc3c(c2)CC(=O)N([C@@H](C)CO)C[C@H](C)[C@H](CN(C)CC2CC2)O3)cc1`, the relative growth is inactive: 0.965.
For `COc1ccc(S(=O)(=O)N[C@@H]2C=C[C@@H](CC(=O)N3CCC(Cc4ccccc4)CC3)O[C@@H]2CO)cc1` the value was inactive: 1.
The value for `CC(C)NC(=O)N(C)C[C@@H]1Oc2ccc(NC(=O)C3CCCCC3)cc2CC(=O)N([C@H](C)CO)C[C@H]1C` was inactive: 0.994; that for `C[C@@H]1CN([C@@H](C)CO)C(=O)CCCn2nncc2CO[C@H]1CN(C)C(=O)Nc1ccc(C(F)(F)F)cc1` was inactive: 0.929.
The value for `CC(=O)n1cc([C@H]2C=C(C(=O)N3CCOCC3)O[C@@H](OCCCCOC(=O)NCCCCCC(=O)NO)C2)c2ccccc21` was inactive: 0.99; that for `C[C@@H]1CCCCO[C@H](CN(C)C(=O)Cc2ccccc2)[C@@H](C)CN([C@@H](C)CO)C(=O)c2cc(NC(=O)Nc3ccc(C(F)(F)F)cc3)ccc2O1` was inactive: 1.03; that for `COc1ccc(S(=O)(=O)Nc2ccc3c(c2)CC(=O)N([C@@H](C)CO)C[C@@H](C)[C@H](CN(C)S(=O)(=O)c2ccc(C)cc2)O3)cc1` was inactive: 1.05.
Consider `Cc1noc(C)c1NC(=O)N(C)C[C@H]1Oc2ccc(NS(=O)(=O)c3cn(C)cn3)cc2C(=O)N([C@H](C)CO)C[C@@H]1C`, for which the relative growth was inactive: 0.994.
Turning to `CCCCc1cn(C[C@H](Cc2ccccc2)NC(=O)N[C@H](CO)CCc2oc(C(C)=O)c(C(=O)OC)c2C(=O)OC)nn1`, the relative growth was inactive: 1.02.
For `N[C@@H]1CCCN(Cc2ccncc2)[C@H]1c1ccccc1F` the value was inactive: 1.01; for `COc1ccc(NC(=O)Nc2ccc3c(c2)C(=O)N([C@@H](C)CO)C[C@H](C)[C@H](CN(C)C(=O)c2ccccc2)OCCCC[C@@H](C)O3)cc1`, inactive: 1.01.
With `C[C@@H](NC(=O)c1ccnn1C)[C@H]1CCCO1`, the relative growth is inactive: 0.992.
Take `COc1ccc(NC(=O)Nc2ccc3c(c2)C(=O)N([C@H](C)CO)C[C@H](C)[C@H](CN(C)Cc2ccc(C(F)(F)F)cc2)O3)cc1`: the relative growth is inactive: 1.
Regarding `O=C1CCCNCC1`, the relative growth is inactive: 0.984.
`C[C@@H]1CN([C@H](C)CO)C(=O)c2cc(C#Cc3ccccn3)cnc2O[C@H]1CN(C)C(=O)CCN1CCCCC1`: the relative growth is inactive: 0.993.
For `Cc1cc(C(=O)Nc2cccc3c2O[C@@H](CN(C)Cc2ccc4c(c2)OCO4)[C@@H](C)CN([C@H](C)CO)C3=O)n(C)n1` the value was inactive: 0.997.
`C[C@@H]1CN([C@H](C)CO)C(=O)c2cc(NS(=O)(=O)c3ccccc3)ccc2O[C@@H](C)CCCCO[C@@H]1CN(C)Cc1ccc(Cl)c(Cl)c1`: the relative growth was inactive: 1.02.
